# Data: PubChem BioAssay (NCATS)
# This list was built around the results that the source calls inconclusive (neither active nor inactive); the mix of calls is not that of the screen. For part of these data: Potencies of inconclusive entries are left out as doubtful fits. Active and inactive are the calls of the source. Unless noted, the call rests on the fitted dose curve; in most records, active means well fitted curve in the direction sought with a large enough effect; inconclusive means small, poorly fitted or top-dose-only effect, or another doubt; inactive means no such curve, though single readings can be large; an effect the other way counts as inactive or inconclusive.
# How the values were obtained:
# [1] = test system: Zika virus NS2B-NS3 protease (linked construct); experiment: Primary screen NINDS Rhodamine qHTS for Zika virus inhibitors (AID 1347160); further: nearly all actives have a fitted effect of over 55% in size; further: potency means the concentration at half of the fitted maximal effect; on activity change, negative = inhibition: on the % scale 0 is the no-effect control and ±100 the full control effect
# How it was run: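 Aprotinin served as in-plate control. Conditions: 25 nM linked NS2B-NS3, pH 8.0 Tris buffer, titrated compounds, 15 min preincubation and 15 min reaction with 1.5 microM Rhod110 substrate at room temperature.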
# [2] = Primary fluorescence-based thiol-reactive (MSTI) qHTS assay for identification of artifact compounds. (AID 1845221);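 further: potency means the concentration at half of the fitted maximal effect; thiol-reactive compounds lower the probe fluorescence signal; nearly all actives have a fitted effect of over 65% in size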
# How it was run: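 Thiol-reactive compounds detected by quenching of 4 uM MSTI fluorescence (525/598 nm) after 1 h room-temperature dark incubation in PBS pH 7.4, 2% DMSO. qHTS titration; percent inhibition Hill-fitted against Acetyl-MSTI/MSTI controls.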
# C33A = experiment: Primary qHTS to identify gynecologic anti-cancer compounds using libraries of approved drugs and bioactive compounds (AID 1345084); conditions: Gynecologic cancer cell panel viability, ATPlite luminescence, 48 h; series mostly up to 57.5 µM; further: nearly all actives have a fitted effect of over 55% in size; further: potency means the concentration at half of the fitted maximal effect; on activity change, negative = cytotoxicity: on the % scale 0 is the no-effect control and ±100 the full control effect
# How it was run: (§1)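 Five-point cytotoxicity, 48 h drug exposure at 37 C, 5% CO2, on cells seeded 16 h beforehand. ATP content read by ATPlite luminescence.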
# [3] = Primary qHTS for inhibitors of nuclear receptor binding SET domain protein 2 (NSD2) in an RCH-ACV wild type WT cells (2C) (AID 1645877); conditions: activity change, negative = cell killing: at 44.9 µM (top of the series) unless noted; further: nearly all actives have a fitted effect of over 70% in size; further: potency means the concentration at half of the fitted maximal effect
# [4] = Primary qHTS for inhibitors of nuclear receptor binding SET domain protein 2 (NSD2) in an isogenic RCH-ACV NSD2 p.E1099K mutant (9B) (AID 1645876); conditions: activity change, negative = viability loss: at 44.9 µM (top of the series) unless noted; further: nearly all actives have a fitted effect of over 70% in size; further: potency means the concentration at half of the fitted maximal effect
# CAOV3 = experiment: Primary qHTS to identify gynecologic anti-cancer compounds using libraries of approved drugs and bioactive compounds (AID 1345084); conditions: Gynecologic cancer cell panel viability, ATPlite luminescence, 48 h; series mostly up to 57.5 µM; further: nearly all actives have a fitted effect of over 55% in size; further: potency means the concentration at half of the fitted maximal effect; on activity change, negative = cytotoxicity: on the % scale 0 is the no-effect control and ±100 the full control effect
# How it was run: as §1
# CASKI = experiment: as above; conditions: Gynecologic cancer cell panel viability, ATPlite luminescence, 48 h; series mostly up to 57.5 µM
# How it was run: as §1
# OV90 = experiment: as above; conditions: Gynecologic cancer cell panel viability, ATPlite luminescence, 48 h; series mostly up to 57.5 µM
# How it was run: as §1
# Tov-21-G = experiment: as above; conditions: Gynecologic cancer cell panel viability, ATPlite luminescence, 48 h; series mostly up to 57.5 µM
# How it was run: as §1
# [5] = S16 Schwann cell PMP22 intronic element firefly luciferase assay (AID 624032); further: potency means the concentration at half of the fitted maximal effect; nearly all actives have a fitted effect of over 30% in size
# How it was run: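 Rat S16 Schwann cells stably carrying a PMP22 intronic element-driven Fluc reporter were seeded overnight, then exposed to compounds for 24 h at 37 °C. Luminescence was normalized to PTC124 (positive control) and DMSO (0% activity).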
# [6] = S16 Schwann cell PMP22 intronic element beta-lactamase assay (AID 624044; calls by dose curve;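 further: 0% = DMSO and -100% = potassium clavulanate positive control; nearly all actives have a fitted effect of over 15% in size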); conditions: S16 rat Schwann cells, PMP22 element beta-lactamase FRET, 24 h; ratio activity, negative = inhibition: at 38.3 µM (top of the series) unless noted
# How it was run: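 Beta-lactamase reporter under a PMP22 intronic regulatory element in stable S16 rat Schwann cells; 24 h compound exposure. 460 nm blue signal normalized between DMSO (0%) and potassium clavulanate, with 535 nm FRET tracking viability; curves classed by r2 and response.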
# [7] = NS1 protein of Zika virus - qHTS assay to identify small molecule inhibitors in human HEK 293 cells (AID 1347053)
# How it was run: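 In this cell-based screen, HEK 293 cultures received compound for one hour before Zika MR766 at MOI = 0.5. NS1 was quantified 24 hours later by TR-FRET, normalized to virus-free wells and infected wells.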
# [8] = qHTS of pediatric cancer cell lines to identify multiple opportunities for drug repurposing: Primary screen for A673 cells (AID 1347092); conditions: A673 Ewing sarcoma viability, CellTiter-Glo ATP luminescence, 48 h; activity change, negative = cytotoxic: at 46 µM (top of the series); further: potency means the concentration at half of the fitted maximal effect; nearly all actives have a fitted effect of over 45% in size
# How it was run: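 Cells are plated, rested 5 h, dosed by pintool, incubated 48 h, then lysed with CellTiter-Glo and read by luminescence. DMSO is the neutral control; bortezomib at 2.3 uM final is the positive control.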
# [9] = qHTS of pediatric cancer cell lines to identify multiple opportunities for drug repurposing: Primary screen for SK-N-SH cells (AID 1347098);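 further: DMSO served as neutral control and bortezomib at 2.3 µM as positive control; on the % scale 0 is the no-effect control and ±100 the full control effect; nearly all actives have a fitted effect of over 65% in size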
# How it was run: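 Cells (500-1,000/well) rested 5 h, then received compounds for 48 h; metabolically active cells were measured by CellTiter-Glo luminescence. Final concentrations spanned up to 46 µM (MIPE, 11-point) or 0.59 nM-46 µM (NPC, 8-point) in primary screens, 11-point in follow-ups.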
# [10] = qHTS of pediatric cancer cell lines to identify multiple opportunities for drug repurposing: Primary screen for Rh18 cells (AID 1347102); further: on the % scale 0 is the no-effect control and ±100 the full control effect; nearly all actives have a fitted effect of over 65% in size
# How it was run: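 Cells (500-1,000/well) in growth media were settled 5 h at 37 degrees C, then given compounds for 48 h. Viability was read as CellTiter-Glo luminescence. Primary runs used MIPE at 11 points (0.78 nM-46 µM) and NPC at 8 points (0.59 nM-46 µM); follow-ups used 11 points.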
# [11] = qHTS of pediatric cancer cell lines to identify multiple opportunities for drug repurposing: Primary screen for Rh41 cells (AID 1347108);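 further: luminescence drop marks cytotoxic hits; nearly all actives have a fitted effect of over 70% in size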
# How it was run: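 CRCs from 8- or 11-point titrations (lowest final 0.59 nM NPC, 0.78 nM MIPE). Cell viability: CellTiter-Glo after 48 h incubation, 15 min room-temperature development, luminescence imaging.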
# [12] = test system: Zika virus NS2B-NS3 protease (unlinked complex); experiment: Primary screen GU Rhodamine qHTS for Zika virus inhibitors: Unlinked NS2B-NS3 protease assay (AID 1347159); conditions: Recombinant ZIKV NS2B-NS3 protease, Rhodamine110 substrate fluorescence; activity change, negative = inhibition: at 107 µM (top of the series); further: on the % scale 0 is the no-effect control and ±100 the full control effect; nearly all actives have a fitted effect of over 60% in size
# How it was run: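 Buffer 10 mM Tris-HCl pH 8.0, 0.01% Tween 20. Unlinked protease 25 nM; compound preincubation 15 min, RT, protected from light. Substrate Rhod110, 1.5 microM; ~15% conversion in 15 min.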
# HeLa = experiment: Primary qHTS to identify gynecologic anti-cancer compounds using libraries of approved drugs and bioactive compounds (AID 1345084); conditions: Gynecologic cancer cell panel viability, ATPlite luminescence, 48 h; series mostly up to 57.5 µM; further: nearly all actives have a fitted effect of over 55% in size; further: potency means the concentration at half of the fitted maximal effect; on activity change, negative = cytotoxicity: on the % scale 0 is the no-effect control and ±100 the full control effect
# How it was run: as §1
# SKOV3 = experiment: as above; conditions: Gynecologic cancer cell panel viability, ATPlite luminescence, 48 h; series mostly up to 57.5 µM
# How it was run: as §1
# [13] = Drug repurposing screens with cells derived from glioblastoma tumor samples (AID 1345199); conditions: GBM patient neurospheres viability, ATP luminescence, 48 h; Potency: tumour line A unless noted; activity, negative = cell killing: at 46 µM (top of the series), tumour line A unless noted; further: potency means the concentration at half of the fitted maximal effect; nearly all actives have a fitted effect of over 40% in size
# How it was run: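 Primary testing used CD133+ neurospheres from four GBM patients, seven concentrations, 48 h exposure and ATP-based viability; confirmation added three slower-growing patient lines.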
# CP237 = experiment: qHTS profiling for inhibitors of Plasmodium falciparum proliferation (AID 504749);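 further: 0% = DMSO vehicle and full inhibition = artemisinin control; nearly all actives have a fitted effect of over 60% in size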; conditions: P. falciparum in erythrocytes, SYBR Green DNA, 72 h; series mostly up to 28.7 µM
# How it was run: (§2)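 Quantitative HTS: compounds pinned into medium, infected erythrocytes added (0.3% parasitemia, 2.5% hematocrit), 72 h culture at 37 C under 5% CO2. Saponin/Triton lysis with SYBR Green I, overnight RT, then fluorescence read.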
# CP250 = experiment: as above; conditions: P. falciparum in erythrocytes, SYBR Green DNA, 72 h; series mostly up to 28.7 µM
# How it was run: as §2
# CP252 = experiment: as above; conditions: P. falciparum in erythrocytes, SYBR Green DNA, 72 h; series mostly up to 28.7 µM
# How it was run: as §2
# CP297 = experiment: as above; conditions: P. falciparum in erythrocytes, SYBR Green DNA, 72 h; activity, negative = inhibition: at 28.7 µM (top of the series)
# How it was run: as §2
# DFO2036 = experiment: as above; conditions: P. falciparum in erythrocytes, SYBR Green DNA, 72 h; series mostly up to 28.7 µM
# How it was run: as §2
# SC27B = experiment: as above; conditions: P. falciparum in erythrocytes, SYBR Green DNA, 72 h; series mostly up to 28.7 µM
# How it was run: as §2
# [14] = molecular target: Glutathione peroxidase 1 (Homo sapiens) (UniProt P07203); experiment: Primary qHTS Assay for Inhibitors of Recombinant Selenoprotein Glutathione Peroxidase 1 (GPX1) (AID 1845191); further: on the % scale 0 is the no-effect control and ±100 the full control effect; nearly all actives have a fitted effect of over 65% in size
# How it was run: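 GPX1 10 nM, GR 100 nM, GSH 1 mM, NADPH 0.5 mM, CHP 0.5 mM (final). 30-min cpd preincubation, RT. Ex340/Em450 read t=0, t=15 min.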
# Es-2 = experiment: Primary qHTS to identify gynecologic anti-cancer compounds using libraries of approved drugs and bioactive compounds (AID 1345084); conditions: Gynecologic cancer cell panel viability, ATPlite luminescence, 48 h; series mostly up to 57.5 µM; further: nearly all actives have a fitted effect of over 55% in size; further: potency means the concentration at half of the fitted maximal effect
# How it was run: as §1
# [15] = P-glycoprotein substrates identified in KB-8-5-11 adenocarcinoma cell line, qHTS therapeutic library screen (AID 1346987); conditions: activity change, negative = cytotoxicity: at 44.5 µM (top of the series)
# How it was run: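 Compounds are pinned in dose-response onto KB-8-5-11 cells (500 cells/well, colchicine-free medium) and left 72 h at 37 degree C. CellTiter-Glo luminescence then yields AC50 values.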
# [16] = molecular target: Cytochrome P450 2C9 (Homo sapiens) (UniProt P11712); experiment: Cytochrome P450 family 2 subfamily C member 9 (CYP2C9) small molecule antagonists: luciferase biochemical (cell-free) qHTS assay (AID 1645842; active means well fitted curve in the direction sought with a large enough effect in the repeat runs; inconclusive means weak or mixed curves; inactive means no such curve, though single readings can be large; an effect the other way counts as inactive or inconclusive)
# How it was run: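 P450-Glo CYP2C9 system: proluciferin substrate with enzyme in mix containing 0.4% BSA, 10 min at room temperature, then NADPH regeneration solution added and incubated 1 h at 37C. Detection reagent stopped reaction; luminescence read after 20 min as RLU.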
# Hek293T = experiment: Primary qHTS to identify gynecologic anti-cancer compounds using libraries of approved drugs and bioactive compounds (AID 1345084); conditions: Gynecologic cancer cell panel viability, ATPlite luminescence, 48 h, control line for the selectivity index; series mostly up to 57.5 µM; further: nearly all actives have a fitted effect of over 55% in size; further: potency means the concentration at half of the fitted maximal effect
# How it was run: as §1
# Tags describe the fitted curve by direction and shape.
# UniProt P07203, sequence (P07203 whole entry, looked up): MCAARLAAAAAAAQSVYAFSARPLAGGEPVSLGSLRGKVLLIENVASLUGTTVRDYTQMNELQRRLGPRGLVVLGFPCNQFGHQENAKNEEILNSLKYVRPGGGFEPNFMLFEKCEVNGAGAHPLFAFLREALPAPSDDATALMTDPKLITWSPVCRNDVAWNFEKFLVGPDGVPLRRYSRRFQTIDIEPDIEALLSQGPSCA
# UniProt P11712, sequence (P11712 whole entry, looked up): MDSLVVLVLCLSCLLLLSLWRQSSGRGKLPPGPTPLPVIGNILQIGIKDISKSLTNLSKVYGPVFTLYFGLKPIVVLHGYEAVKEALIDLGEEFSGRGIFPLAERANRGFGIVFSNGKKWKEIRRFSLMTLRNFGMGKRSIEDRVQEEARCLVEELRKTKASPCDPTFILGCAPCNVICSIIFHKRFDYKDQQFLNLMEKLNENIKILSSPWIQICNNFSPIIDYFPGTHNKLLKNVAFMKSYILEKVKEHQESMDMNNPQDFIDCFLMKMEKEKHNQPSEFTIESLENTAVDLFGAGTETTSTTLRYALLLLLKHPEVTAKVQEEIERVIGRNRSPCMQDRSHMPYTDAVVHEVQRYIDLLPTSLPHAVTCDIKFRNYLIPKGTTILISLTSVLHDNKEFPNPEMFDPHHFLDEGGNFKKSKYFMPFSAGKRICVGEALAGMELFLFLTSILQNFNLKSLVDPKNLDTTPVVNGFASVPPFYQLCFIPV
smiles,measurement,setting,value
CC1=CC(=O)C(=C(C)C)CC2C1CCC2(C)O (stereo not drawn),Potency,[1],inactive
same,Potency,[2],"inconclusive [inhibitor, full curve, poor fit]"
same,Potency,C33A,inactive
C=C(C(=O)O)C1CCC2(C)CCC(O)C(C)(O)C2C1 (stereo not drawn),Potency,[3],inactive
same,Potency,[2],"inconclusive [inhibitor, partial curve]"
same,Potency,C33A,inactive
COc1cc(CO)ccc1O[C@@H]1O[C@H](CO)[C@@H](O)[C@H](O)[C@H]1O,Potency,[4],inactive
same,Potency,[2],"inconclusive [inhibitor, partial curve]"
same,Potency,CAOV3,"inconclusive [rising, single point]"
same,Potency,CASKI,inactive
same,Potency,OV90,inactive
same,Potency,Tov-21-G,inactive
CN1C(CCl)Nc2cc(Cl)c(S(N)(=O)=O)cc2S1(=O)=O (stereo not drawn),Potency,[5],active: 0.161 µM
same,"ratio activity, negative = inhibition",[6],inconclusive: -8.73%
same,Potency,[7],inactive
same,Potency,[8],"inconclusive [cytotoxic, single point]"
same,Potency,[9],inactive
same,Potency,[10],inactive
same,Potency,[11],inactive
same,Potency,[12],inactive
same,Potency,CAOV3,"inconclusive [rising, full curve, poor fit]"
same,Potency,HeLa,inactive
same,Potency,SKOV3,"inconclusive [rising, single point]"
same,Potency,[13],"inconclusive [inhibitor, partial curve, poor fit]"
same,Potency,CP237,inactive
same,Potency,CP250,inactive
same,Potency,CP252,inactive
same,Potency,CP297,inactive
same,Potency,DFO2036,inactive
same,Potency,SC27B,inactive
CCC(C)/C=C(C)/C=C/C1=CC2=C(Cl)C(=O)C(C)(O)C(=O)C2(O)C(OC)O1 (stereo not drawn),Potency,[1],active: 10 µM
same,Potency,[4],"inconclusive [inhibitor, single point]"
same,Potency,[3],"inconclusive [inhibitor, single point]"
same,Potency,[14],inactive
same,Potency,[2],"inconclusive [inhibitor, partial curve]"
same,Potency,CAOV3,"inconclusive [cytotoxic, single point]"
same,Potency,Es-2,"inconclusive [cytotoxic, single point]"
same,Potency,SKOV3,inactive
Cc1cnc(NC(=O)Nc2cc(Br)c(C)cc2OCC2CNCCO2)cn1 (stereo not drawn),Potency,[15],active: 8.2 µM
same,Potency,[12],inactive
same,Potency,[16],"inconclusive [inhibitor, full curve]"
same,Potency,CAOV3,"inconclusive [cytotoxic, partial curve, poor fit]"
same,Potency,Es-2,"inconclusive [cytotoxic, partial curve]"
same,Potency,HeLa,"inconclusive [cytotoxic, single point]"
same,Potency,Hek293T,active: 8.91 µM
same,Potency,OV90,"inconclusive [cytotoxic, full curve]"
same,Potency,SKOV3,active: 10 µM
same,Potency,Tov-21-G,"inconclusive [cytotoxic, full curve]"
